{
  "source": "paper PMC12136788",
  "binders": {"B1": {"name": "chr3:69085097:69085224:+|CDS|ENSG00000144746|unk|FALSE|bound_elsewhere (ssRNA)", "RNA": "GGGAGUUCUACAGUCCGACGAUCGGGUUCCGAUCGCUUUGCCCGGCCGGACUUCAGGGACAUUUCCAAAUGGAACAACCGCGUAGUGAGCAACCUGCUCUAUUACCAGACCAACUACCUGGUGGUGGCUGCCAUGAUGAUUUCCAACAGAGGAUUGAGCAUCA"}, "B2": {"name": "ENSG00000136451:be:win_4151|3pUTR|ENSG00000136451|bound_else_gene|NA|bound_elsewhere_windowed (ssRNA)", "RNA": "GGGAGUUCUACAGUCCGACGAUCUGUUGAAGGCACGACAGCCACUGCUCUACGAAAAGGCAGAGUACGUUUUUCCCUUCUGGUUGUAACCUGGUUGAGAGCUUCCCCUUUAUCAGAUUGGCAGCUAAACAGUUGUAUUAGAUACAACAGAGGAUUGAGCAUCA"}, "B3": {"name": "ENSG00000198589:be:win_6201|CDS|ENSG00000198589|bound_else_gene|NA|bound_elsewhere_windowed (ssRNA)", "RNA": "GGGAGUUCUACAGUCCGACGAUCUAGCCUGAGCACACCAGCUCAGCUUGUGGCCCCCUCUGUUGUAGUAAAGGGCACUCUUUCUGUCACCUCCUCCGAACUCUAUUUUGAGGUGGAUGAAGAGGAUCCUAACUUCAAAAAAAUCAACAGAGGAUUGAGCAUCA"}, "B4": {"name": "chr15:57953423:57955269:-|three_prime_utr|ENSG00000128918|control|control|control (ssRNA)", "RNA": "GGGAGUUCUACAGUCCGACGAUCGAAGGCCAAGAAGGAGGAUGAAGCCCAGCCUGCACGUCUGUCCCUCUCUGCUUUCUCUGUAGGGCCCAGCUCUCAGGAAUACAAAGUUGAGCCACGGUCCUUACUUAAAGAUUGAAAAGACAACAGAGGAUUGAGCAUCA"}, "B5": {"name": "ENSG00000136451:be:win_801|CDS|ENSG00000136451|bound_else_gene|NA|bound_elsewhere_windowed (ssRNA)", "RNA": "GGGAGUUCUACAGUCCGACGAUCUGCUGCCUUUGCCACCAAAGACAGACUGCGGACACACAUGGUGCGCCAUGAAGGCAAGGUAUCAUGUAACAUCUGUGGGAAGCUCCUGAGUGCAGCAUACAUCACCAGCCACUUAAAGACCAACAGAGGAUUGAGCAUCA"}, "B6": {"name": "chr13:44143149:44143917:-|three_prime_utr|ENSG00000139656|control|control|control (ssRNA)", "RNA": "GGGAGUUCUACAGUCCGACGAUCUCAGGCAAGACUCAGGACUGCUCUGGACAUUCAGAAGCUGAGUGUGCAAGUGUGCUGUGUAGUUCAAGGCCACCACCACUGAAGAGGCCAAGGACACCUUAGUAGGAAUUCUAACCUGGCCAACAGAGGAUUGAGCAUCA"}},
  "note": "Some of the results follow.",
  "data": [
    {"target": "T1, UNK ZnF1-6 (called full-length) (human, UniProt Q9C0B0 30-357)", "T1 sequence": "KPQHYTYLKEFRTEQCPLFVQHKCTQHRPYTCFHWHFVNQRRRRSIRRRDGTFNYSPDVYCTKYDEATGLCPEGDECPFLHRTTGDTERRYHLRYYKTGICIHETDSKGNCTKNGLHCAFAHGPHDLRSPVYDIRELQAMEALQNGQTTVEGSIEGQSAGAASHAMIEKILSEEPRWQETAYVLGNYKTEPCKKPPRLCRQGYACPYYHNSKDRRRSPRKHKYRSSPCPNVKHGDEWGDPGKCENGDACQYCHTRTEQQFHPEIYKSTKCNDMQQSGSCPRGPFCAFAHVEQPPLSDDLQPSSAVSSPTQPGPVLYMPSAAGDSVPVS", "assay": "nsRBNS (natural sequence RNA bind-n-seq); RBNS binding buffer (assumed for nsRBNS): 25 mM Tris pH 7.5, 150 mM KCl, 3 mM MgCl2, 0.01% Triton X-100, 500 ug/ml BSA, 20 U/ml SUPERase-In, 4 C; UNK is unkempt and MSI1 is Musashi-1; names of the RNAs are library labels; protein concentration not given here; high values mean tight binding", "units": {"binding signal": "enrichment R"}, "values": [
      {"binder": "B1", "binding signal": 0.785},
      {"binder": "B2", "binding signal": 0.49},
      {"binder": "B3", "binding signal": 0.534},
      {"binder": "B4", "binding signal": 0.542},
      {"binder": "B5", "binding signal": 0.478},
      {"binder": "B6", "binding signal": 0.867}
    ]}
  ]
}
